Data: PMC8441365
No constants are given. Whether binding was seen depends on the method and setting. In cells and extracts the contact can be indirect. Some results given as binding are weak or reduced against the parent protein; the word gives no strength. For some assays here: Where a sequence is shown, tags or fusion partners need not be part of it. Values belong to the binder of their own block, whether it stands above or below them.

The chains behind the UniProt entries cited, without tags or fusion partners.
UniProt Q969U6: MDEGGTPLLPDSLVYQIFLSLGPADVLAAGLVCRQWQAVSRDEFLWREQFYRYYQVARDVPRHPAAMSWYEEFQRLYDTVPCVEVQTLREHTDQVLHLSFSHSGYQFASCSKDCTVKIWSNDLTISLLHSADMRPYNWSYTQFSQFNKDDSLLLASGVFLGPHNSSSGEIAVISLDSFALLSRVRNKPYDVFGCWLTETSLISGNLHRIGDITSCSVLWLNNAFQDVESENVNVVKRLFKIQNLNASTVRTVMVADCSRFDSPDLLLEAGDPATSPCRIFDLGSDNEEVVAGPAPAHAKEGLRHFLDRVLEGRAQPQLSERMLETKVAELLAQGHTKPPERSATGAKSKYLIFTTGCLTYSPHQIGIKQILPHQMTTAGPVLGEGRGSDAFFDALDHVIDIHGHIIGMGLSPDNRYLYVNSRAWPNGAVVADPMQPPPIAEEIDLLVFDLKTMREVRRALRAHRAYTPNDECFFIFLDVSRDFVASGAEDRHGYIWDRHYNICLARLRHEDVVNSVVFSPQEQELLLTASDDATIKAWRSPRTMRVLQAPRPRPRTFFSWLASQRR
UniProt Q969H0: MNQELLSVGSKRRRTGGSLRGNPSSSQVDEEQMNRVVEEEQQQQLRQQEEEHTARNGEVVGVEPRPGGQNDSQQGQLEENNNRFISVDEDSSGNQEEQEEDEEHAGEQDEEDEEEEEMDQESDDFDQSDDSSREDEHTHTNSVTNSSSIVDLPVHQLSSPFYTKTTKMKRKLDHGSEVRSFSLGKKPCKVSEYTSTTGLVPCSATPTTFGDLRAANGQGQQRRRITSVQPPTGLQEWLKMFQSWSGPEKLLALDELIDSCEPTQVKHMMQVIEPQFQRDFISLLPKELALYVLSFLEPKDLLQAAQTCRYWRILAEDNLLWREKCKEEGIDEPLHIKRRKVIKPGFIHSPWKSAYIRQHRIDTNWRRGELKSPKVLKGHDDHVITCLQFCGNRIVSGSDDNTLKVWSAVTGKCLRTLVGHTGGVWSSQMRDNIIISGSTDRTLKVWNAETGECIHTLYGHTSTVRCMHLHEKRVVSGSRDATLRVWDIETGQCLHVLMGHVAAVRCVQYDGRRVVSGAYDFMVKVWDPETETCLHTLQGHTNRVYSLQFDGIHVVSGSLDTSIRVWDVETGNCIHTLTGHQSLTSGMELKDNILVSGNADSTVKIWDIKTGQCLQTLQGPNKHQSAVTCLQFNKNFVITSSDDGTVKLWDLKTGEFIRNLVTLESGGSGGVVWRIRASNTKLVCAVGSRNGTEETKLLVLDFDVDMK

Legend:
[1] = target: HaloTag(HT)-tagged Fbxw5 (human) (UniProt Q969U6); assay: FRET or BRET; NanoBRET in living HeLa cells; NanoLuc fusion as donor, HaloTag fusion with 618 ligand as acceptor; corrected NanoBRET ratio
[2] = target: Fbxw7 (tagged, Hek293T) (human) (UniProt Q969H0); assay: co-IP; tagged proteins expressed in Hek293T cells, extracts subjected to anti-Flag IP (FLAG-agarose, 3 h; lysis buffer 20 mM HEPES pH 7.3, 110 mM K-acetate, 0.2% NP-40), Western blot
[3] = target: Flag-Fbxw5 (human) (UniProt Q969U6); assay: as above
[4] = target: endogenous Fbxw5 (human (endogenous in RPE-1)) (UniProt Q969U6); assay: co-IP; endogenous proteins; anti-Fbxw5 IgG or unspecific rabbit IgG with Protein A agarose, lysis buffer with 0.4% NP-40; Fig 2D: RPE-1 cells asynchronous or arrested 24 h with 2 mM HU, 10 µM RO-3306 or 75 ng/ml nocodazole; Fig EV1D: cell line not stated
[5] = target: Flag-Fbxw5 (human) (UniProt Q969U6); assay: co-IP; exogenously expressed Flag-Fbxw5 precipitated with anti-Flag antibodies, eluted with FLAG-peptide, TCA precipitated; endogenous partners detected by Western blot (Fig EV1C)

B1: MCAK fused to NanoLuc luciferase (protein, UniProt Q99661 1-725)
chain: MAMDSSLQARLFPGLAIKIQRSNGLIHSANVRTVNLEKSCVSVEWAEGGATKGKEIDFDDVAAINPELLQLLPLHPKDNLPLQENVTIQKQKRRSVNSKIPAPKESLRSRSTRMSTVSELRITAQENDMEVELPAAANSRKQFSVPPAPTRPSCPAVAEIPLRMVSEEMEEQVHSIRGSSSANPVNSVRRKSCLVKEVEKMKNKREEKKAQNSEMRMKRAQEYDSSFPNWEFARMIKEFRATLECHPLTMTDPIEEHRICVCVRKRPLNKQELAKKEIDVISIPSKCLLLVHEPKLKVDLTKYLENQAFCFDFAFDETASNEVVYRFTARPLVQTIFEGGKATCFAYGQTGSGKTHTMGGDLSGKAQNASKGIYAMASRDVFLLKNQPCYRKLGLEVYVTFFEIYNGKLFDLLNKKAKLRVLEDGKQQVQVVGLQEHLVNSADDVIKMIDMGSACRTSGQTFANSNSSRSHACFQIILRAKGRMHGKFSLVDLAGNERGADTSSADRQTRMEGAEINKSLLALKECIRALGQNKAHTPFRESKLTQVLRDSFIGENSRTCMIATISPGISSCEYTLNTLRYADRVKELSPHSGPSGEQLIQMETEEMEACSNGALIPGNLSKEEEELSSQMSSFNEAMTQIRELEEKAMEELKEIIQQGPDWLELSEMTEQPDYDLETFVNKAESALAQQAKHFSALRDVIKALRLAMQLEEQASRQISSKKRPQ
- binding [1]: binds

B4: endogenous CSRP2 (protein, UniProt Q16527 1-193)
chain: MPVWGGGNKCGACGRTVYHAEEVQCDGRSFHRCCFLCMVCRKNLDSTTVAIHDEEIYCKSCYGKKYGPKGYGYGQGAGTLNMDRGERLGIKPESVQPHRPTTNPNTSKFAQKYGGAEKCSRCGDSVYAAEKIIGAGKPWHKNCFRCAKCGKSLESTTLTEKEGEIYCKGCYAKNFGPKGFGYGQGAGALVHAQ
- binding [5]: binds

Further lines, results first:

- binding [2]: no binding
- binding [3]: binds
B2: HA-MCAK (protein, UniProt Q99661 1-725)
chain: MAMDSSLQARLFPGLAIKIQRSNGLIHSANVRTVNLEKSCVSVEWAEGGATKGKEIDFDDVAAINPELLQLLPLHPKDNLPLQENVTIQKQKRRSVNSKIPAPKESLRSRSTRMSTVSELRITAQENDMEVELPAAANSRKQFSVPPAPTRPSCPAVAEIPLRMVSEEMEEQVHSIRGSSSANPVNSVRRKSCLVKEVEKMKNKREEKKAQNSEMRMKRAQEYDSSFPNWEFARMIKEFRATLECHPLTMTDPIEEHRICVCVRKRPLNKQELAKKEIDVISIPSKCLLLVHEPKLKVDLTKYLENQAFCFDFAFDETASNEVVYRFTARPLVQTIFEGGKATCFAYGQTGSGKTHTMGGDLSGKAQNASKGIYAMASRDVFLLKNQPCYRKLGLEVYVTFFEIYNGKLFDLLNKKAKLRVLEDGKQQVQVVGLQEHLVNSADDVIKMIDMGSACRTSGQTFANSNSSRSHACFQIILRAKGRMHGKFSLVDLAGNERGADTSSADRQTRMEGAEINKSLLALKECIRALGQNKAHTPFRESKLTQVLRDSFIGENSRTCMIATISPGISSCEYTLNTLRYADRVKELSPHSGPSGEQLIQMETEEMEACSNGALIPGNLSKEEEELSSQMSSFNEAMTQIRELEEKAMEELKEIIQQGPDWLELSEMTEQPDYDLETFVNKAESALAQQAKHFSALRDVIKALRLAMQLEEQASRQISSKKRPQ

- binding [4]: binds
B3: endogenous MCAK (protein, UniProt Q99661 1-725)
chain: MAMDSSLQARLFPGLAIKIQRSNGLIHSANVRTVNLEKSCVSVEWAEGGATKGKEIDFDDVAAINPELLQLLPLHPKDNLPLQENVTIQKQKRRSVNSKIPAPKESLRSRSTRMSTVSELRITAQENDMEVELPAAANSRKQFSVPPAPTRPSCPAVAEIPLRMVSEEMEEQVHSIRGSSSANPVNSVRRKSCLVKEVEKMKNKREEKKAQNSEMRMKRAQEYDSSFPNWEFARMIKEFRATLECHPLTMTDPIEEHRICVCVRKRPLNKQELAKKEIDVISIPSKCLLLVHEPKLKVDLTKYLENQAFCFDFAFDETASNEVVYRFTARPLVQTIFEGGKATCFAYGQTGSGKTHTMGGDLSGKAQNASKGIYAMASRDVFLLKNQPCYRKLGLEVYVTFFEIYNGKLFDLLNKKAKLRVLEDGKQQVQVVGLQEHLVNSADDVIKMIDMGSACRTSGQTFANSNSSRSHACFQIILRAKGRMHGKFSLVDLAGNERGADTSSADRQTRMEGAEINKSLLALKECIRALGQNKAHTPFRESKLTQVLRDSFIGENSRTCMIATISPGISSCEYTLNTLRYADRVKELSPHSGPSGEQLIQMETEEMEACSNGALIPGNLSKEEEELSSQMSSFNEAMTQIRELEEKAMEELKEIIQQGPDWLELSEMTEQPDYDLETFVNKAESALAQQAKHFSALRDVIKALRLAMQLEEQASRQISSKKRPQ
